34 compounds from the supplement of paper PMC12297408 can be followed below.

Where a name gives a salt, the structure may show the parent alone. Screen size: about 1,300 compounds; about 40 (3%) showed activity. The list shows a part of the results.

For the assay, the system named is Plasmodium falciparum NF54/iGP1_RE9H ulg8 stage V gametocytes. Description: gametocyte viability (luciferase signal relative to DMSO control) (% of DMSO control); higher = less gametocytocidal activity, active = 50 or less. Conditions: exposure time: 72 h. The gist of the method:
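NF54/iGP1_RE9Hulg8 stage V gametocytes (day 12; ~2.5% gametocytemia, 3% hematocrit) in medium with 0.5% Albumax II were added to 96-well plates of nanolitre-spotted compounds (10 mM DMSO stocks), giving 10 µM or 1 µM, one well each. Plates were incubated 72 h at 37 °C. Then 90 µl was mixed with 10 µl D-luciferin (30 mg/ml) and luminescence was read on an IVIS Lumina II. Viability is relative to the mean of plate DMSO vehicle controls.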

As for `CN1CCN(CCCN2c3ccccc3Sc3ccc(C(F)(F)F)cc32)CC1` [Trifluoperazine dihydrochloride], the gametocyte viability is inactive: 82.8 (concentration: 1 µM) and active: 46.8 (concentration: 10 µM).

With `CC[C@H](C)[C@H](N)C1=N[C@H](C(=O)N[C@@H](CC(C)C)C(=O)N[C@H](CCC(=O)O)C(=O)N[C@H](C(=O)N[C@H]2CCCCNC(=O)[C@H](CC(N)=O)NC(=O)[C@@H](CC(=O)O)NC(=O)[C@H](Cc3cnc[nH]3)NC(=O)[C@@H](Cc3ccccc3)NC(=O)[C@H]([C@@H](C)CC)NC(=O)[C@@H](CCCN)NC2=O)[C@@H](C)CC)CS1` [Bacitracin], the gametocyte viability was inactive: 90.8 (concentration: 1 µM) and inactive: 84.3 (concentration: 10 µM).

Take `CN(C)CCOC(C)(c1ccccc1)c1ccccn1` (stereo not drawn) [Doxylamine succinate]: the gametocyte viability is, setting by setting: (concentration: 1 µM) inactive: 87.8; (concentration: 10 µM) inactive: 87.7.

For the compound `CC(=O)c1ccc2c(c1)N(CCCN(C)C)c1ccccc1S2` [Acetopromazine maleate salt], the gametocyte viability reads like this: (concentration: 1 µM) inactive: 94.6; (concentration: 10 µM) inactive: 92.5.

With `CC(C)(C#N)c1cc(Cn2cncn2)cc(C(C)(C)C#N)c1` [Anastrozole], the gametocyte viability (concentration: 1 µM) was inactive: 77.6 and the gametocyte viability (concentration: 10 µM) is active: 45.8.

Take `Oc1c(I)cc(Cl)c2cccnc12` [Clioquinol]: the gametocyte viability is inactive: 85.9 (concentration: 1 µM) and inactive: 84.4 (concentration: 10 µM).

Turning to `Nc1ccn([C@H]2CC[C@@H](CO)O2)c(=O)n1` [Zalcitabine], the gametocyte viability is inactive: 86.3 (concentration: 1 µM) and inactive: 85.7 (concentration: 10 µM).

On to `CN(C(=O)C(Cl)Cl)c1ccc(OC(=O)c2ccco2)cc1` [Diloxanide furoate], for which the gametocyte viability by setting is: (concentration: 1 µM) inactive: 82; (concentration: 10 µM) inactive: 86.

Turning to `CN1[C@@H]2CC[C@H]1C[C@@H](OC(=O)c1c[nH]c3ccccc13)C2` [Tropisetron HCl], the gametocyte viability runs as follows: (concentration: 1 µM) inactive: 81.3; (concentration: 10 µM) inactive: 79.4.

Consider `Cc1cccc(C)c1OCC(C)N` (stereo not drawn) [Mexiletine hydrochloride], for which the gametocyte viability was inactive: 86.6 (concentration: 1 µM) and inactive: 88.4 (concentration: 10 µM).

As for `Nc1c2c(nc3ccccc13)CCCC2O` (racemic) [Hydroxytacrine maleate (R,S)], the gametocyte viability (concentration: 1 µM) is inactive: 101 and the gametocyte viability (concentration: 10 µM) is inactive: 93.6.

As for `N#Cc1cc(NC(=O)C(=O)O)c(Cl)c(NC(=O)C(=O)O)c1` [Lodoxamide], the gametocyte viability was inactive: 91.8 (concentration: 1 µM) and inactive: 102 (concentration: 10 µM).

Regarding `COc1ccccc1OCC(O)CO` (stereo not drawn) [Guaifenesin], the gametocyte viability (concentration: 1 µM) was inactive: 81.8 and the gametocyte viability (concentration: 10 µM) is inactive: 83.6.

Take `NC[C@@H]1O[C@H](O[C@H]2[C@@H](O)[C@H](O[C@@H]3[C@@H](O)[C@H](N)C[C@H](N)[C@H]3O[C@H]3O[C@H](CO)[C@@H](O)[C@H](O)[C@H]3N)O[C@@H]2CO)[C@H](N)[C@@H](O)[C@@H]1O` [Paromomycin sulfate]: the gametocyte viability was inactive: 81.2 (concentration: 1 µM) and inactive: 86.6 (concentration: 10 µM).

As to `Nc1nc(CC(=O)Nc2ccc(CCNC[C@H](O)c3ccccc3)cc2)cs1` [Mirabegron], the gametocyte viability is inactive: 91.9 (concentration: 1 µM) and inactive: 90.8 (concentration: 10 µM).

As to `CC(=O)[C@H]1CC[C@H]2[C@@H]3C=CC4=CC(=O)CC[C@@]4(C)[C@@H]3CC[C@]12C` [Dydrogesterone], the gametocyte viability was inactive: 84.5 (concentration: 1 µM) and inactive: 91.7 (concentration: 10 µM).

`Oc1c(Cl)cc(Cl)c(Cl)c1Cc1c(O)c(Cl)cc(Cl)c1Cl` [Hexachlorophene]: the gametocyte viability (concentration: 1 µM) is inactive: 75.9 and the gametocyte viability (concentration: 10 µM) is inactive: 75.7.

On to `Cc1c(N(C)C)c(=O)n(-c2ccccc2)n1C` [Amidopyrine], for which the gametocyte viability is, setting by setting: (concentration: 1 µM) inactive: 99; (concentration: 10 µM) inactive: 95.3.

Regarding `COc1ccc(/C=C/C(=O)Nc2ccccc2C(=O)O)cc1OC` [Tranilast], the gametocyte viability (concentration: 1 µM) was inactive: 68.5 and the gametocyte viability (concentration: 10 µM) was active: 40.9.

With `CCOC(=O)C1=C(COCCN)NC(C)=C(C(=O)OC)C1c1ccccc1Cl` (stereo not drawn) [Amlodipine], the gametocyte viability was inactive: 82.2 (concentration: 1 µM) and inactive: 63.1 (concentration: 10 µM).

In the case of `CN(C)C(=O)C(CCN1CCC(O)(c2ccc(Cl)cc2)CC1)(c1ccccc1)c1ccccc1` [Loperamide hydrochloride], the gametocyte viability is inactive: 84 (concentration: 1 µM) and inactive: 79 (concentration: 10 µM).

Take `Cc1cccc(C)c1NC(=O)C(C)N` (stereo not drawn) [Tocainide hydrochloride]: the gametocyte viability is, setting by setting: (concentration: 1 µM) inactive: 91.8; (concentration: 10 µM) inactive: 90.2.

Take `CCCCc1cc2ccccc2c(OCCN(C)C)n1` [Dimethisoquin hydrochloride]: the gametocyte viability (concentration: 1 µM) was inactive: 86.5 and the gametocyte viability (concentration: 10 µM) was inactive: 91.9.

As to `CC(C(=O)O)c1ccc2c(c1)[nH]c1ccc(Cl)cc12` (stereo not drawn) [Carprofen], the gametocyte viability (concentration: 1 µM) was inactive: 78.8 and the gametocyte viability (concentration: 10 µM) is inactive: 81.6.

With `C[C@H]1O[C@@H](O[C@H]2[C@@H](O)C[C@H](O[C@H]3[C@@H](O)C[C@H](O[C@H]4CC[C@@]5(C)[C@H](CC[C@@H]6[C@@H]5C[C@@H](O)[C@]5(C)[C@@H](C7=CC(=O)OC7)CC[C@]65O)C4)O[C@@H]3C)O[C@@H]2C)C[C@H](O)[C@@H]1O` [Digoxin], the gametocyte viability by setting is: (concentration: 1 µM) inactive: 71.3; (concentration: 10 µM) inactive: 90.4.

Turning to `COc1cc([S+](C)[O-])ccc1-c1nc2cccnc2[nH]1` (stereo not drawn) [Sulmazole], the gametocyte viability is inactive: 88.9 (concentration: 1 µM) and inactive: 88 (concentration: 10 µM).

For `CC(C(=O)O)c1ccc(-c2ccccc2)c(F)c1` (stereo not drawn) [Flurbiprofen], the gametocyte viability runs as follows: (concentration: 1 µM) inactive: 92.9; (concentration: 10 µM) inactive: 84.3.

As to `O=C(OCC(O)CO)c1ccccc1Nc1ccnc2cc(Cl)ccc12` (stereo not drawn) [Glafenine hydrochloride], the gametocyte viability (concentration: 1 µM) is inactive: 81 and the gametocyte viability (concentration: 10 µM) is inactive: 87.6.

As to `C#Cc1cccc(Nc2ncnc3cc(OCCOC)c(OCCOC)cc23)c1` [Erlotinib], the gametocyte viability is inactive: 70.7 (concentration: 1 µM) and active: 37.2 (concentration: 10 µM).

As for `Cc1onc(-c2ccccc2Cl)c1C(=O)N[C@@H]1C(=O)N2[C@@H]1SC(C)(C)[C@@H]2C(=O)O` [Cloxacillin sodium salt], the gametocyte viability by setting is: (concentration: 1 µM) inactive: 97.9; (concentration: 10 µM) inactive: 93.9.

On to `N[C@@H](C(=O)N[C@@H]1C(=O)N2C(C(=O)O)=C(Cl)CC[C@H]12)c1ccccc1` [Loracarbef], for which the gametocyte viability was inactive: 96.3 (concentration: 1 µM) and inactive: 91.2 (concentration: 10 µM).

`CC(C)Nc1cccnc1N1CCN(C(=O)c2cc3cc(NS(C)(=O)=O)ccc3[nH]2)CC1` [Delavirdine]: the gametocyte viability is inactive: 92.5 (concentration: 1 µM) and inactive: 95.8 (concentration: 10 µM).

Regarding `CN[C@@H]1[C@H](O)[C@H](NC)[C@H]2O[C@@]3(O)C(=O)C[C@@H](C)O[C@H]3O[C@@H]2[C@H]1O` [Spectinomycin dihydrochloride], the gametocyte viability (concentration: 1 µM) is inactive: 82.6 and the gametocyte viability (concentration: 10 µM) was inactive: 84.7.

`NS(=O)(=O)c1cc2c(cc1Cl)NC(C(Cl)Cl)NS2(=O)=O` (stereo not drawn) [Trichlormethiazide]: the gametocyte viability is, setting by setting: (concentration: 1 µM) inactive: 88.5; (concentration: 10 µM) inactive: 94.3.
